Measurements published in the supplement of paper PMC11417369.
± gives the standard deviation of the averaged measurements. The list shows a part of the results.

system: PfAP2-EXP AP2 domain (GST-tagged); experiment: gcPBM binding intensity (ln(normalized median fluorescence intensity)); higher = stronger DNA binding
In short: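 After 1 h on an Agilent 4 × 180k array of primer-extended double-stranded 36-bp intergenic genomic probes and negative controls, bound GST-tagged P. falciparum DNA-binding domains were detected with Alexa488 anti-GST antibody and scanned at 488 nm. The domains had been expressed in E. coli, and binding took place in 1× PBS with 1% milk, 0.2 mg/ml BSA, 0.5% salmon testes DNA and 0.03% Triton X-100. Binding intensity is the highest Masliner-normalised natural-log median intensity across replicate spots of either probe orientation.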

Row | Sequence | gcPBM binding intensity (ln)
1 | TTTTACAATAACAATACACACTATAATATATATATA [CACACA_site4893] | 9.53 ± 0.19
2 | AAAAGAATTTGAAGTCGTACAATATCTATTATATGA [XGTACX_site8275] | 8.41 ± 0.36
3 | AAAAAAAAATAAAAATGTACATATATAATATTATAT [XGTACX_site71] | 8.7 ± 0.45
4 | ATATAATATACTTATTGTACTTATTTAAAATACTAA [XGTACX_site4266] | 8.24 ± 0.13
5 | AAAAAATGGCTAGTTTGTACACAAAAGTTATTGCAT [XGTACX_site5381] | 8.43 ± 0.33
6 | TTTCTCAATTCTTAGAGTACATAAATAAAAAAAAAA [XGTACX_site7639] | 8.35 ± 0.33
7 | AAGATAAAATTATGCACACATACGAATAATTTTAAA [CACACA_site1705] | 8.52 ± 0.16
8 | GAATATATAAGAACAAATATGGCTTAGAAAAAAAAA [TGCATGCA_negctrl_site451] | 8.47 ± 0.57
9 | ATAAAAATGGATGAATATAAAAAAAAAAAAATATAT [CACACA_negctrl_site182] | 8.55 ± 0.35
10 | TACAAAAGTTAAACATGTACTTAATTATATGTTTTT [XGTACX_site2852] | 8.18 ± 0.34
11 | TCAAGTTTATATTAACTATTTATGAAAAAAAAAAGA [CACACA_negctrl_site902] | 8.16 ± 0.41
12 | ATATATTACAAATGGAGTACTAAAAATATTCTATAT [XGTACX_site6669] | 8.71 ± 0.36
13 | TATAAGGCAATAATAGTGCACTAAGATATATAATGA | 9.04 ± 0.2
14 | TTACACTAAATATGTTCACACATTTTTTCCATCATA [CACACA_site4647] | 8.62 ± 0.37
15 | CTAAAAATTTTAATTGCACACCACGTTGGACTATTT [CACACA_site1489] | 8.47 ± 0.28
16 | CCCATGCATTTTTGCACACACATATATTTATAAATA [CACACA_site6785] | 8.9 ± 0.49
17 | TATATATATGGGTTTACACACAATAATGAATTAAAA [CACACA_site915] | 8.36 ± 0.28
18 | CCCACAGACGGACACACACACACATATATATATATA [CACACA_site4352] | 10.1 ± 0.34
19 | TTAGAATTTAGAGAAGTGCATATTAAGTTACGAATT [GTGCAC_site9861] | 8.68 ± 0.24
20 | AAAAAAAATATATATATTAAAGTTTTAATTTTTATA [CACACA_negctrl_site497] | 7.88 ± 0.42
21 | ATTATATATATATATAGTACTTTTTTTTTTTTTTTT [XGTACX_site8801] | 8.47 ± 0.23
22 | ATAATAATTTTATGCACACAGAAAAATACAAGGTTA [CACACA_site3510] | 8.64 ± 0.26

Row | Sequence | gcPBM binding intensity (ln)
23 | TTATTGGTTATATAAAGTACATTTGAAATATAATTG [XGTACX_site6553] | 8.46 ± 0.54
24 | TTTTCTTGGTATATGATTTATCCTAAATAAGTAAAT [CACACA_negctrl_site294] | 8.37 ± 0.45
25 | TTGCCTGACTTGTTCACACATATTTATGATATACAT [CACACA_site5783] | 8.73 ± 0.37
26 | AATTTAAAGTTTTTTTTTTTTTTTTTTTTTTTTTTG [CACACA_negctrl_site1082] | 7.76 ± 0.56
27 | TGTATTATAATATTATGTACTTATAAATTTTATATT [XGTACX_site6432] | 8.56 ± 0.35
28 | ATATTATTATAAAGTGGTACAATAAATGGTATTATA [XGTACX_site391] | 8.63 ± 0.23
29 | TCTCACATTCTTATGGGTACACATGAGAAATTATAA [XGTACX_site6799] | 8.57 ± 0.26
30 | TGGGTGGTAAAAATGTGTACATAAAAAAATAATGTT [XGTACX_site2235] | 8.95 ± 0.3
31 | AATATACACCCGTGTACACAAATATTTACAAAACGT [CACACA_site4786] | 8.96 ± 0.39
32 | GTTACACCAACAAACACACACACACCCACCCACAAA [CACACA_site2427] | 8.93 ± 0.74
33 | AAAAGGAATGAAAATTCACACAACTATAAATACATA [CACACA_site5337] | 8.55 ± 0.42
34 | GGTATTACCTGTTTGTTATGTAGATGTTGCTAGGAT [GTGCAC_negctrl_site736] | 8.92 ± 0.49
35 | TAATTCTTTATAATAACACACATTCATATACAATAA [CACACA_site2499] | 8.29 ± 0.24
36 | ATACCAATAATATACATACACACATAAAGGTTTATA [CACACA_site314] | 8.43 ± 0.36
37 | AAGAAAAACTAAAGAGTTCTGTTCATATCTCTTTGG [TGCATGCA_negctrl_site549] | 8.24 ± 0.56
38 | AAGGAAAAACCATTCGCACACACACCGAATATATAA [CACACA_site8403] | 8.59 ± 0.3
39 | TATATCAAATTCTAAACATGCACAAAAAACTTATAA [TGCATGCA_site510] | 8.78 ± 0.27
40 | TATTTATATAGACACACACACATATATTTATATTTT [CACACA_site7240] | 8.52 ± 0.45
41 | ACTTAAATAATACATACACACATGTACATACAGAAA [CACACA_site1595] | 8.73 ± 0.15
42 | TTTACATTTAATAAAAGTACTTATTTCATATACATA [XGTACX_site659] | 8.4 ± 0.26
43 | ACACATATGACAAATAGTACATAAATATATAAATAT [XGTACX_site7141] | 8.57 ± 0.49
44 | AAAAAATTTCAAATAACACACACTAATATATATATG [CACACA_site1426] | 8.61 ± 0.35

Row | Sequence | gcPBM binding intensity (ln)
45 | TAAATATATAATTGTAGTACTGTTTTATGTTCATAA [XGTACX_site1020] | 8.38 ± 0.39
46 | AATATTCACATTTGTTGTACATTCCTAGTTATATAA [XGTACX_site491] | 8.89 ± 0.4
47 | AAGGAAAATTTTTGGTGTACACAAAAAAATCCAAAA [XGTACX_site3596] | 8.88 ± 0.31
48 | TAAACAGATATATTTTGTACATATTGTATATTTTGT [XGTACX_site713] | 8.21 ± 0.45
49 | ACAAAAAAGTAAAAAGTGCATGTAAAATATAAGTAT [GTGCAC_site9438] | 9.37 ± 0.32
50 | AATAAATCTTTTTGTTGTACTAAAAATATTATTAGC [XGTACX_site3335] | 8.21 ± 0.42
51 | TTAATATATTATATTTGTACATATATATATATACAA [XGTACX_site4798] | 8.38 ± 0.36
52 | AAATTGTGTTCATCAGCACACACAACATCATGTAAT [CACACA_site8556] | 8.51 ± 0.41
53 | CGAAAGAAAAAAAGCACACACAGTTTTGAGCAATGA [CACACA_site2109] | 8.54 ± 0.59
54 | CTTATTTCCTTTTGTAGTACCTTATAATATATATAA [XGTACX_site8873] | 9.04 ± 0.38
55 | TTATATATTTTTTGCACACCAAAAAAGAGAATATTC [CACACA_site2730] | 8.8 ± 0.27
56 | GGGAAGTAGTAGTAATGTACTTATTTATTATGTGAC [XGTACX_site3985] | 8.71 ± 0.35
57 | GCATTTCTACTAAAAATACACACGATGATACAACGA [CACACA_site1756] | 8.61 ± 0.38
58 | TAATAATAGTACTCACATCAAAGTATTATTAAAAAT [TGCATGCA_negctrl_site496] | 8.29 ± 0.28
59 | TTCTATTTGTAAAATTGTACAAAATAAATAACAAAA [XGTACX_site1007] | 8.72 ± 0.34
60 | TATAAATATAAATACACACACATATATATTATATAT [CACACA_site4496] | 8.39 ± 0.38
61 | ATATATATATATATGTGTACATAATAACTTTGCTTA [XGTACX_site1255] | 10.1 ± 0.24
62 | ACCTATTTCAAACACACACACACACTAGCAAACATA [CACACA_site4695] | 8.78 ± 0.52
63 | TATATATATATATGTTGTACATATTTAAATGTTTAT [XGTACX_site5437] | 10.2 ± 0.2
64 | TAAAAAATGTTATATACACACAGTATAAAAAAAAAT [CACACA_site7808] | 8.61 ± 0.57
65 | CCACGTATAATATGTACACACACATAAATACAAAAA [CACACA_site4660] | 8.76 ± 0.49
66 | AATTAAATTATAAGCACACACATATATATATATATA [CACACA_site3351] | 10.2 ± 0.32

Row | Sequence | gcPBM binding intensity (ln)
67 | ATATATTATTATAACTGTACTTTTTTTGTGGTTAAT [XGTACX_site8266] | 8.63 ± 0.33
68 | TATGCGTATATATAAATACACACCAAATGTTAATAT [CACACA_site1713] | 8.49 ± 0.3
69 | CCATTTACATTGTGAAGTACTAAAAAAAAATGTAGA [XGTACX_site7882] | 8.7 ± 0.34
70 | ACAAGGAATATAAAAAGTACATAAAATACATAAAAA [XGTACX_site1217] | 8.81 ± 0.33
71 | ATATAAATATAAATATATATGTATAAATATAAATAT [CACACA_negctrl_site247] | 8.25 ± 0.47
72 | TATGGATGTATTCATACATGCACACGTACATATTTA [TGCATGCA_site991] | 8.71 ± 0.2
73 | ATAATTTGATGGTTAACACACATATATATTATATAT [CACACA_site2449] | 8.63 ± 0.41
74 | TATATATATATATATACACACAAAAAAATAAATTCT [CACACA_site98] | 10.1 ± 0.57
75 | TACTTTTCATCTTCTTAACACACAAAAAAAAAAAAA [CACACA_site9290] | 8.46 ± 0.38
76 | ATTTATTTTAATAATTGTACATGTTATTTTATATAT [XGTACX_site2667] | 8.41 ± 0.46
77 | ATCATTTTTAAAGGAACACACAAAAAAAGTTATAAT [CACACA_site6761] | 8.82 ± 0.55
78 | ATACATCAAGGACACACACACACACGCACACGCACA [CACACA_site6310] | 8.68 ± 0.45
79 | AAACTATTCACTATAATACATTAGAAGTGAATAAAA [TGCATGCA_negctrl_site498] | 8.38 ± 0.45
80 | TTATGATGGTCTTTATAAGGGCACATTAAATTCGGC [TGCATGCA_negctrl_site166] | 8.72 ± 0.35
81 | AATAGCAATTTGGGGTGTACACACACCTTATTTAAA [XGTACX_site2234] | 8.64 ± 0.4
82 | TGAAAAGGAAATTGTTGTACATATGTTTCTTCCTAA [XGTACX_site3932] | 8.44 ± 0.55
83 | ATATATTTAACAAGATGTACAATTTTATAAAAAATA [XGTACX_site2351] | 8.45 ± 0.26
84 | AGAAATTAATCGAGGTGTACGTACATCCAAATATAT [XGTACX_site7650] | 8.87 ± 0.42
85 | TATATATAAATATTCAGTACATAGTGCTATTAAGTG [XGTACX_site1979] | 8.605 ± 0.064
86 | CCATTATATCTAAGTACACACATTAATTTTTTTTTT [CACACA_site6115] | 8.54 ± 0.32
87 | TTTTTATAAAAAAATAGTACTCGTCTAATCTTATGT [XGTACX_site8532] | 8.48 ± 0.26
88 | GAAATTTTATTTCGGCGGACAAATGTATACTTTCTT [XGTACX_site4238] | 8.54 ± 0.33
